# Results reported in the supplement of paper PMC9446081.
# Screen size: about 39,000 compounds; about 220 (0.56%) showed activity. This is one part of the list.
# System: Escherichia coli K-12 BW25113
# Assay: relative growth (OD600 normalised to plate interquartile mean) (fraction); higher = less growth inhibition, active = 0.2 or less
# Details: 50 µM; LB; incubation time: overnight (16-24 h)
# 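Also: static incubation at 37 °C against the wild-type strain, values averaged over two biological replicates.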
row,SMILES,relative growth
1,CN(C)Cc1cn(CC[C@H]2CC[C@H](NC(=O)Cc3cccnc3)[C@H](CO)O2)nn1,inactive: 1.01
2,COc1ccc(S(=O)(=O)N(C)C[C@@H]2Oc3c(NS(=O)(=O)c4ccccc4)cccc3C(=O)N([C@@H](C)CO)C[C@@H]2C)cc1,inactive: 0.99
3,C[C@H]1CCCCO[C@H](CN(C)C(=O)Nc2cccc3ccccc23)[C@@H](C)CN([C@@H](C)CO)C(=O)c2cc(NC(=O)c3ccncc3)ccc2O1,inactive: 0.957
4,COC[C@@H]1CNN1C(=O)c1cc(C)oc1C,inactive: 0.8
5,Cc1ccc(S(=O)(=O)Nc2ccc3c(c2)C(=O)N([C@H](C)CO)C[C@@H](C)[C@@H](CN(C)C(=O)NC2CCCCC2)OCCCC[C@H](C)O3)cc1,inactive: 1.03
6,CN(C)CCCNC(=O)C[C@H]1CC[C@@H]2[C@@H](COc3ccc(NC(=O)NC4CCCC4)cc3C(=O)N2C)O1,inactive: 0.983
7,CCn1nc(C)c([C@@H](C)N)c1C,inactive: 0.992
8,C[C@@H]1CN([C@H](C)CO)S(=O)(=O)c2ccc(C3=CCCCC3)cc2O[C@H]1CN(C)Cc1cncnc1,inactive: 1.01
9,NNC(=S)Nc1cccc(F)c1,inactive: 0.981
10,C=CC1=C(C(=O)O)N2C(=O)[C@@H](NC(=O)/C(=N/O)c3csc(N)n3)[C@H]2SC1,active: 0.0336
11,C[C@H](CO)N1C[C@H](C)[C@H](CN(C)C(=O)Cc2ccccn2)Oc2ncc(C#CC3CCCCC3)cc2C1=O,inactive: 0.863
12,C[C@H](CO)N1C[C@H](C)[C@H](CN(C)S(=O)(=O)c2ccc3ccccc3c2)OCc2cnnn2CCCC1=O,inactive: 1.04
13,C[C@@H]1CN([C@@H](C)CO)C(=O)c2cccc(NC(=O)Nc3ccc(C(F)(F)F)cc3)c2O[C@H]1CN(C)C(=O)Nc1cccc2ccccc12,inactive: 0.8
14,C[C@@H]1CCCCO[C@@H](CN(C)S(=O)(=O)c2cccs2)[C@@H](C)CN([C@H](C)CO)C(=O)c2cc(NC(=O)Nc3ccc(C(F)(F)F)cc3)ccc2O1,inactive: 0.986
15,C[C@H]1CN([C@@H](C)CO)C(=O)c2cccc(NS(C)(=O)=O)c2O[C@H]1CN(C)S(=O)(=O)c1ccccc1,inactive: 1.04
16,O=C1CC[C@H](C(=O)N2CCCCC2)N1,inactive: 0.986
17,COc1ccc(NC(=O)Nc2ccc3c(c2)C(=O)N([C@@H](C)CO)C[C@H](C)[C@H](CN(C)C(=O)NC2CCCCC2)OCCCC[C@@H](C)O3)cc1,inactive: 1.01
18,Cc1ccc(S(=O)(=O)Nc2ccc3c(c2)CC(=O)N([C@@H](C)CO)C[C@H](C)[C@@H](CN(C)S(C)(=O)=O)O3)cc1,inactive: 1
19,C[C@H](CO)N1C[C@H](C)[C@@H](CN(C)Cc2ccc(C(=O)O)cc2)OCCCC[C@H](C)Oc2ccc(NC(=O)NC3CCCCC3)cc2C1=O,inactive: 1
20,CNC[C@@H]1OCCCC[C@@H](C)Oc2ccc(NC(=O)c3ccncc3)cc2C(=O)N([C@@H](C)CO)C[C@H]1C,inactive: 0.977

row,SMILES,relative growth
1,C[C@H]1CN([C@@H](C)CO)C(=O)c2cccc(NC(=O)Nc3ccc(C(F)(F)F)cc3)c2O[C@H]1CN(C)C(=O)Nc1ccccc1,inactive: 0.9
2,COc1ccc(NC(=O)N(C)C[C@@H]2Oc3ccc(NC(=O)CCCN(C)C)cc3CC(=O)N([C@H](C)CO)C[C@H]2C)cc1,inactive: 0.984
3,C[C@@H]1CN([C@H](C)CO)C(=O)Cc2cc(NC(=O)Nc3ccc(F)cc3)ccc2O[C@@H]1CN(C)Cc1ccc(Oc2ccccc2)cc1,inactive: 1.03
4,C#CC1(O)CCC2C3CCc4cc(O)ccc4C3CCC21C (stereo not given),inactive: 0.817
5,C[C@@H]1CCCCO[C@@H](CN(C)S(C)(=O)=O)[C@H](C)CN([C@@H](C)CO)C(=O)c2cc(NC(=O)Nc3ccc(C(F)(F)F)cc3)ccc2O1,inactive: 1.02
6,c1cc(-c2nn[nH]n2)ccc1OCc1nn[nH]n1,inactive: 1.04
7,CN([C@@H](Cc1ccc(OS(=O)(=O)c2cccc3cnccc23)cc1)C(=O)N1CCN(c2ccccc2)CC1)S(=O)(=O)c1cccc2cnccc12,inactive: 0.904
8,COc1ccc(NC(=O)N(C)C[C@H]2Oc3ccc(NC(=O)C4CC4)cc3CC(=O)N([C@H](C)CO)C[C@H]2C)cc1,inactive: 0.968
9,C[C@H](CO)N1C[C@H](C)[C@H](CN(C)S(C)(=O)=O)Oc2c(NS(=O)(=O)c3ccc(Cl)cc3)cccc2C1=O,inactive: 1.02
10,COc1ccc(S(=O)(=O)N(C)C[C@@H]2Oc3ccc(NS(=O)(=O)c4ccc(F)cc4)cc3C(=O)N([C@H](C)CO)C[C@H]2C)cc1,inactive: 0.999
11,CC(C)(C)c1c(C(C)(C)C)c1=O,inactive: 0.987
12,CN1CCN(C(=O)C[C@@H]2CC[C@H]3[C@@H](COc4ccc(NC(=O)c5cscn5)cc4C(=O)N3C)O2)CC1,inactive: 1.01
13,CCCC(=O)Nc1ccc2c(c1)C(=O)N(C)C[C@@H](OC)[C@H](C)CN(Cc1ccc(-c3ccccn3)cc1)[C@@H](C)CO2,inactive: 1.05
14,C[C@@H]1CCCCO[C@@H](CN(C)S(C)(=O)=O)[C@@H](C)CN([C@@H](C)CO)C(=O)c2cc(NS(=O)(=O)c3ccc(F)cc3)ccc2O1,inactive: 1.04
15,COc1ccc(S(=O)(=O)Nc2ccc3c(c2)C(=O)N([C@H](C)CO)C[C@@H](C)[C@@H](CN(C)CC2CCCCC2)OCCCC[C@@H](C)O3)cc1,inactive: 1.01
16,Cn1c(=O)c2[nH]c(Br)nc2n(C)c1=O,inactive: 1.02
17,C[C@@H]1CCCCO[C@H](CN(C)C(=O)Cc2ccccc2)[C@@H](C)CN([C@@H](C)CO)C(=O)c2cc(NC(=O)CCC(F)(F)F)ccc2O1,inactive: 0.983
18,CO[C@H]1CN(C)C(=O)c2cc(NS(=O)(=O)c3cn(C)cn3)ccc2OC[C@@H](C)N(CC2CC2)C[C@H]1C,inactive: 1.03
19,CN(C)C(=O)c1ccc(-c2cccc(-c3nc(C(=O)NCc4ccccc4)cc4c3[C@H](CCO)N([S@@](=O)C(C)(C)C)C4)c2)cc1,inactive: 0.969
20,C[C@@H]1CCCCO[C@H](CN(C)S(C)(=O)=O)[C@H](C)CN([C@@H](C)CO)C(=O)c2cc(NS(=O)(=O)c3cn(C)cn3)ccc2O1,inactive: 0.989
